Data reported in US9072759B2 (priority 2008, dated 2015).
In brackets after ≈: the same amount, converted by molar mass. Several values for one entry are separate records, joined by “and”; a condition that tells them apart may be missing. Where no limit is named, active and inactive come without a cut-off here. Equal entries are not always repeated. Where two headings read alike, the source gives them in different places.

Key:
[1] = system: intraphagocytic S. aureus ATCC 25923 (THP-1 macrophages); assay: microbe, parasite or virus in culture; format: cell-based
[2] = system: intraphagocytic L. monocytogenes EGD (THP-1 macrophages); format: cell-based
[3] = system: intraphagocytic L. pneumophila ATCC 33153 (THP-1 macrophages); format: cell-based; settings: L. p.; for Cs, static concentration at 24 h: intracellular
[4] = system: S. pneumoniae 303 Ery-R (ermB); assay: microbe, parasite or virus in culture; format: cell-based; settings: for MIC: Streptococcus pneumoniae
[5] = system: S. aureus 96:11480 Ery-R (MLSb); assay: microbe, parasite or virus in culture; format: cell-based; settings: for MIC: Staphylococcus aureus
[6] = system: S. pneumoniae 163 Ery-R (MefA); assay: microbe, parasite or virus in culture; format: cell-based; settings: for MIC: Streptococcus pneumoniae
[7] = system: H. influenzae 49247 Ery-S; assay: microbe, parasite or virus in culture; format: cell-based; settings: Haemophilus influenzae, 49247ERYS, read-out: Minimum inhibitory concentration, H. influenzae 49247 Ery-S
[8] = system: S. aureus ATCC 25923; assay: microbe, parasite or virus in culture; format: cell-based; settings: Staphylococcus aureus
[9] = system: S. aureus ATCC 25923; assay: microbe, parasite or virus in culture; format: cell-based
[10] = system: THP-1 macrophages; settings: human
[11] = system: S. aureus (ATCC 29213)
[12] = system: S. epidermidis (095-2777A)
[13] = system: E. faecalis (ATCC 29212)
[14] = system: S. pneumoniae (075-241B)
[15] = system: S. pyogenes (117-1612A)
[16] = system: S. pyogenes (088-11708A)
[17] = system: S. mitis (112-1885A)

In the case of `CC[C@H]1OC(=O)[C@@](C)(F)C(=O)[C@H](C)[C@@H](OC2OC(C)CC(N(C)C)C2O)[C@@](C)(OC)C[C@@H](C)C(=O)[C@H](C)[C@H]2N(CCCCn3cc(-c4cccc(N)c4)nn3)C(=O)O[C@]12C` (stereo partly drawn) [CEM-101, 11-N-4-(3-aminophenyl)-[1,2,3]triazol-1-yl]-butyl}-5-desosaminyl-3-oxo-2-fluoro-erythronolide A,-11,12-cyclic carbamate], the “Cs, static concentration at 24 h” value [1] is reported as 0.022 mg/L, the “Cs, static concentration at 24 h” value [2] is reported as 0.11 mg/L and the “Cs, static concentration at 24 h” value [3] is reported as 0.018 mg/L.

With `CCC1OC(=O)C(C)C(=O)C(C)C(OC2OC(C)CC(N(C)C)C2O)C(C)(OC)CC(C)C(=O)C(C)C2N(CCCn3cc(-c4ccccc4)nn3)C(=O)OC12C` (stereo not drawn) [Entry 11a] the “Minimum inhibitory concentration, S. pneumoniae 303 Ery-R (ermB)” value (shortened to “Minimum inhibitory concentration … (ermB)”) [4] was “inactive”.

`CCC1OC(=O)C(C)C(=O)C(C)C(OC2OC(C)CC(N(C)C)C2O)C(C)(OC)CC(C)C(=O)C(C)C2N(CCCCCn3cc(-c4ccccc4)nn3)C(=O)OC12C` (stereo not drawn) [Entry 11c] was tested, and the “Minimum inhibitory concentration, S. aureus 96:11480 Ery-R (MLSb)” value (“Minimum inhibitory concentration … (MLSb)” for short) [5] was at most 0.125 µg/mL.

With `CCC1OC(=O)C(C)C(=O)C(C)C(OC2OC(C)CC(N(C)C)C2O)C(C)(OC)CC(C)C(=O)C(C)C2N(CCCCn3cc(-c4ccccn4)nn3)C(=O)OC12C` (stereo not drawn) [Entry 14b] the “Minimum inhibitory concentration … (ermB)” value [4] was at most 0.125 µg/mL.

With `CCC1OC(=O)C(C)C(=O)C(C)C(OC2OC(C)CC(N(C)C)C2O)C(C)(OC)CC(C)C(=O)C(C)C2N(CCCCn3cc(-c4cccc(N)c4)nn3)C(=O)OC12C` (stereo not drawn) [Entry 16b] the “Minimum inhibitory concentration … (ermB)” value [4] was at most 0.125 µg/mL.

With `CCC1OC(=O)C(C)C(=O)C(C)C(OC2OC(C)CC(N(C)C)C2O)C(C)(OC)CC(C)C(=O)C(C)C2N(CCCCn3cc(COc4c(Cl)cccc4Cl)nn3)C(=O)OC12C` (stereo not drawn) [Entry 17b] the “Minimum inhibitory concentration … (MLSb)” value [5] was at most 0.125 µg/mL.

With `CCC1OC(=O)C(C)C(=O)C(C)C(OC2OC(C)CC(N(C)C)C2O)C(C)(OC)CC(C)C(=O)C(C)C2N(CCCCCn3cc(Cn4nnc5ccccc54)nn3)C(=O)OC12C` (stereo not drawn) [Entry 18c] the “Minimum inhibitory concentration … (MLSb)” value [5] was at most 0.125 µg/mL and the “Minimum inhibitory concentration, S. pneumoniae 163 Ery-R (MefA)” value ([6]; […]) was at most 0.125 µg/mL.

With `CC[C@H]1OC(=O)[C@H](C)C(=O)[C@H](C)[C@@H](O[C@@H]2O[C@H](C)C[C@H](N(C)C)[C@H]2O)[C@](C)(OC)C[C@@H](C)C(=O)[C@H](C)[C@H]2N(CCCCn3cnc(-c4cccnc4)c3)C(=O)O[C@]12C` [TEL, Telithromycin] the MIC ([5]; read-out: MIC, S. aureus 96:11480 Ery R (MLSb)) was at most 0.125 µg/mL, the MIC ([5]; read-out: Minimum inhibitory concentration, S. aureus 96:11480 Ery-R (MLSb)) was at most 0.125 µg/mL and the MIC ([6]; read-out: MIC, S. pneumoniae 163 Ery-R (MefA)) was at most 0.125 µg/mL. For the same molecule, the MIC ([6]; read-out: Minimum inhibitory concentration, S. pneumoniae 163 Ery-R (MefA)) was at most 0.125 µg/mL, the MIC ([4]; read-out: MIC, S. pneumoniae 303 Ery-R (ermB)) was at most 0.125 µg/mL and the MIC ([4]; read-out: Minimum inhibitory concentration, S. pneumoniae 303 Ery-R (ermB)) was at most 0.125 µg/mL. For the same molecule, the MIC [7] was 4 µg/mL (≈ 4.93 µM), the Cs [1] was about 0.27 mg/L and the “Cs, static concentration at 24 h” value [1] was 0.63 mg/L. The EC50 [1] was 0.097 x MIC, the “Intracellular activity (24 h): Emax” value [1] was −0.4 ± 0.2 Δ log cfu and −0.4 ± 0.1 Δ log cfu and the “Intracellular activity (24 h): Static dose” value [1] was ~0.23 mg/L and ~0.28 mg/L. It also gave an EC50 ([1]; Staphylococcus aureus, ATCC25923, THP-1, 24 h) of 0.024 µg/mL (≈ 0.0296 µM), an MIC ([8]; ATCC25923, pH 5.5) of 8 µg/mL (≈ 9.85 µM) and an MIC ([8]; ATCC25923, pH 7.4) of 0.5 µg/mL (≈ 0.616 µM). For the same molecule, the EC50 [9] was 0.46 x MIC, the Emax [9] was −1.00 log10 units and the EC50 ([9]; Staphylococcus aureus, ATCC25923, 24 h) was 0.12 µg/mL (≈ 0.148 µM). For the same molecule, the “Extracellular activity (24 h): Emax” value ([9]; pH 5.5) was −1.4 ± 0.9 Δ log cfu, the “Extracellular activity (24 h): Static dose” value ([9]; pH 5.5) was about 9.33 mg/L and the “Extracellular activity (24 h): Emax” value ([9]; pH 7.4) was −1.0 ± 0.4 Δ log cfu. For the same molecule, the “Extracellular activity (24 h): Static dose” value ([9]; pH 7.4) was about 0.28 mg/L, the “Cs, static concentration at 24 h” value [3] was 0.06 mg/L and the Emax ([3]; at 24 h compared to the post-phagocytosis inoculum) was −0.63 Δ log10 CFU. The “accumulation level within 24 h” value [10] was 21 fold, the “Antimicrobial activity (time kill curve)” value [11] was “Cidal at 8X only” and the “Antimicrobial activity (time kill curve)” value [12] was “Static”. The “Antimicrobial activity (time kill curve)” value [13] was “Static”, the “Antimicrobial activity (time kill curve)” value [14] was “Static” and the “Antimicrobial activity (time kill curve)” value [15] was “Cidal at 8X only (slow killing)”. For the same molecule, the “Antimicrobial activity (time kill curve)” value [16] was “Cidal at 2X, 4X, 8X (slow killing)” and the “Antimicrobial activity (time kill curve)” value [17] was “Cidal at 2X, 4X, 8X”.
